Consider 84 molecules from PMC4336329 (PLoS ONE, 2015).

The whole screen tested about 310,000 compounds, of which about 2,200 (0.71%) showed an effect of 50% or more. The effect is printed as a negative number. This is one part of the list.

The target in the test is human ether-à-go-go-related gene (hERG) potassium channel (human, UniProt Q12809). Briefly: primary screen, population patch clamp on CHO cells stably expressing hERG.
Chain of human ether-à-go-go-related gene (hERG) potassium channel (Q12809 whole entry, looked up): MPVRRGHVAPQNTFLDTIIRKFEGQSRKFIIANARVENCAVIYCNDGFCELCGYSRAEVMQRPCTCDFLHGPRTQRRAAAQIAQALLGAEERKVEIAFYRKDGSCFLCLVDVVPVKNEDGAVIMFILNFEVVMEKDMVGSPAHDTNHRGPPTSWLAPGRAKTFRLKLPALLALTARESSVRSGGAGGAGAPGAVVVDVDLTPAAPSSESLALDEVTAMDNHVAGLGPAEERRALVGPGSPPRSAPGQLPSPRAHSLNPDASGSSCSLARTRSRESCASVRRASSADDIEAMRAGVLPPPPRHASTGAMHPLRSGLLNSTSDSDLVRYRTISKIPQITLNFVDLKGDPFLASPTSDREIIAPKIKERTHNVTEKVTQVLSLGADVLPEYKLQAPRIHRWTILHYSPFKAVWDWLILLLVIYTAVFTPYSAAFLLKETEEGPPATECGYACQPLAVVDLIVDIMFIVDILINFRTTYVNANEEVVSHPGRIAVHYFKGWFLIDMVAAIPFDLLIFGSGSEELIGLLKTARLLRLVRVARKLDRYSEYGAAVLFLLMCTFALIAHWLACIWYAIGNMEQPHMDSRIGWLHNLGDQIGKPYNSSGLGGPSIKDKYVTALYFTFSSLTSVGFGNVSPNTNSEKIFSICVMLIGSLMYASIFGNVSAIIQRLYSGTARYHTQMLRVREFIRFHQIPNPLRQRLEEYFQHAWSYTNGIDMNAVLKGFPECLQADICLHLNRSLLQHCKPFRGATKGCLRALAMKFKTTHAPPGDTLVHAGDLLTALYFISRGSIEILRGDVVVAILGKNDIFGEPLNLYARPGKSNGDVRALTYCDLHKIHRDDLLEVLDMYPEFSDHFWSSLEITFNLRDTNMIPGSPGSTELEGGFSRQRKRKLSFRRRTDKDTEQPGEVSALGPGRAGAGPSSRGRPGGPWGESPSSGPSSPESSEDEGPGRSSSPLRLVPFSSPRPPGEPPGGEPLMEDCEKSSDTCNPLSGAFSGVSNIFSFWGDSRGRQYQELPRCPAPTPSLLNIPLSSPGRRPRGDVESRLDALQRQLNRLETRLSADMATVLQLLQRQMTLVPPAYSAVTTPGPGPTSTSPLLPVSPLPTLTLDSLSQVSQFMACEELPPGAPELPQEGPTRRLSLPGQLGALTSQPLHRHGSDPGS
As for `Cc1ccccc1NCc1ccc([N+](=O)[O-])s1`, the “hERG current change (%, negative = inhibition) at 1uM” value was determined as 0.957%.
Consider `CCC(=O)Nc1cccc(NC(=O)CSc2nnc(-c3ccc(NS(C)(=O)=O)cc3)n2C)c1`, for which the “hERG current change (%, negative = inhibition) at 1uM” value came out at 4.58%.
As for `O=C(CSc1nc2ccccc2o1)NC(=O)NCc1ccco1`, the “hERG current change (%, negative = inhibition) at 1uM” value is given as 3.13%.
On to `N#CC(C#N)=Cc1cn(-c2ncc(C(F)(F)F)cc2Cl)c2ccccc12`, for which the “hERG current change (%, negative = inhibition) at 1uM” value was determined as 9.92%.
As to `CCCOc1cc(C)c(S(=O)(=O)n2nnc3ccccc32)cc1C`, the “hERG current change (%, negative = inhibition) at 1uM” value was 12%.
`O=C(c1cccc(S(=O)(=O)N2CCCC2)c1)c1nnc(-c2ccncc2)o1`: the “hERG current change (%, negative = inhibition) at 1uM” value turned out to be 14.5%.
In the case of `O=C(NC(=S)N1CCCc2ccccc21)c1ccccc1`, the “hERG current change (%, negative = inhibition) at 1uM” value is given as 12.9%.
Next, `COc1ccc(/C=C/C(=O)OC2CCCN(C)C2)cc1.Cl` (stereo not drawn): 8.08%.
Regarding `O=C(NN1C(=O)/C(=C/C=C/c2ccco2)SC1=S)c1ccccc1O`, the “hERG current change (%, negative = inhibition) at 1uM” value is given as 11%.
For `CSc1ccccc1NC(=O)c1c(C)noc1C`, the “hERG current change (%, negative = inhibition) at 1uM” value is recorded as 1.3%.
For `CCOc1cc(NC(=S)NCCCN2CCOCC2)c(OCC)cc1NC(=O)c1ccccc1C`, the “hERG current change (%, negative = inhibition) at 1uM” value is 4.2%.
As to `O=C(/C=C/N1CCOCC1)c1ccc(-c2ccccc2)cc1`, the “hERG current change (%, negative = inhibition) at 1uM” value came out at 11.3%.
Consider `Cc1cnc(C(=O)N2CCCC(C(=O)c3ccc(Cl)cc3C)C2)cn1` (stereo not drawn), for which the “hERG current change (%, negative = inhibition) at 1uM” value is recorded as 5.43%.
As for `COc1ccc(NC(=O)C(=O)NNC(=O)c2cccs2)cc1`, the “hERG current change (%, negative = inhibition) at 1uM” value came to 16.8%.
Consider `O=C(COC(=O)c1cc(S(=O)(=O)N2CCOCC2)ccc1F)NCc1ccco1`, for which the “hERG current change (%, negative = inhibition) at 1uM” value is 1.52%.
Next, `CC12CN3CN(C1)CC(c1ccccc1)(C3)C2=O`: 16%.
Regarding `COc1ccccc1OCCN1C(=O)S/C(=C\c2ccco2)C1=O`, the “hERG current change (%, negative = inhibition) at 1uM” value is reported as -2.97%.
As for `CCC(CC)COC(=O)C1=C(C)NC(=O)NC1c1cc(OC)ccc1OC` (stereo not drawn), the “hERG current change (%, negative = inhibition) at 1uM” value was found to be 9.6%.
On to `COc1ccc(/C=N\NC(=O)c2ccccc2[N+](=O)[O-])cc1COc1c(F)c(F)c(F)c(F)c1F`, for which the “hERG current change (%, negative = inhibition) at 1uM” value is reported as 14.1%.
Consider `CC(C)(C)c1ccc(C(=O)NCCn2c(N)c(C#N)c3nc4ccccc4nc32)cc1`, for which the “hERG current change (%, negative = inhibition) at 1uM” value was found to be 10.2%.
`CCc1nnc(NC(=O)CN2CCN(Cc3ccc(C)cc3)CC2)s1`: the “hERG current change (%, negative = inhibition) at 1uM” value is -27.3%.
Consider `NC(=O)c1ncc(C(F)(F)F)cc1Oc1ccc(C(F)(F)F)cc1`, for which the “hERG current change (%, negative = inhibition) at 1uM” value is listed as 13%.
In the case of `COc1ccc(NC(=O)CN2CCCC2c2cccs2)cc1S(=O)(=O)N1CCCCC1` (stereo not drawn), the “hERG current change (%, negative = inhibition) at 1uM” value is listed as 0.0011%.
As to `NS(=O)(=O)c1ccc(CCNC(=O)CC(c2ccccc2)c2ccccc2)cc1`, the “hERG current change (%, negative = inhibition) at 1uM” value is 3.84%.
The value for `O=C(NCc1cccs1)C1CC(=O)N(c2ccc(F)cc2)C1` (stereo not drawn) was -1.15%; that for `C=C(C)[C@@H]1CC=C(C(=O)O)CC1` was 0.0391%.
For the molecule `N/C(=N\OC(=O)c1ccc2ccccc2c1)c1ccccc1Cl`, the “hERG current change (%, negative = inhibition) at 1uM” value amounted to 7.03%.
Regarding `Cc1ccc(-c2nnc(SCc3nc(N)nc(Nc4ccccc4C)n3)n2N)cc1`, the “hERG current change (%, negative = inhibition) at 1uM” value is 2.21%.
As to `COc1ccc(C(=O)NC(=S)NNC(=O)c2ccc3ccccc3n2)cc1`, the “hERG current change (%, negative = inhibition) at 1uM” value is listed as 11.2%.
For `Cc1ccc(NC(=O)/C(C#N)=C/c2cccs2)c(C)c1`, the “hERG current change (%, negative = inhibition) at 1uM” value is given as -4.64%.
Regarding `COc1ccc(CNC(=O)c2cc(-c3cccs3)on2)cc1`, the “hERG current change (%, negative = inhibition) at 1uM” value is given as 1.71%.
As to `CC1(C(=O)N2CCC(CC3CC(c4ccc(Cl)cc4)=NO3)(C(=O)NCC3CCCCC3)CC2)CC1` (stereo not drawn), the “hERG current change (%, negative = inhibition) at 1uM” value was found to be 2.37%.
`O=C(NCc1cccs1)Nc1ccc(Cl)cc1`: the “hERG current change (%, negative = inhibition) at 1uM” value was -3.6%.
With `CCOc1cccc(OCC)c2c(C)[n+](CC3CCCO3)c(C)c1-2.[O-][Cl+3]([O-])([O-])[O-]` (stereo not drawn), the “hERG current change (%, negative = inhibition) at 1uM” value is on record as 9.93%.
Consider `CCOC(=O)C1=C(CC)OC(N)=C(C#N)C1c1ccc(OC)cc1OC` (stereo not drawn), for which the “hERG current change (%, negative = inhibition) at 1uM” value is on record as 10.2%.
The value for `O=C(Oc1ccc(/C=N/NC(=O)c2ccccn2)cc1)c1ccc(Br)cc1` was 3.91%; that for `O=c1c([N+](=O)[O-])cccn1Cc1ccccc1Cl` was 7.31%.
As for `Cc1cccc(C)c1NC1=NC(=S)N(c2ccc(N(C)C)cc2)C1(C)C`, the “hERG current change (%, negative = inhibition) at 1uM” value is reported as 7.62%.
Next, `Cc1noc(C)c1CS(=O)(=O)Cc1ccc(Cl)cc1`: 10.1%.
Regarding `O=C1CCCC2=C1C(c1cccc(Br)c1)n1nc(-c3ccco3)nc1N2` (stereo not drawn), the “hERG current change (%, negative = inhibition) at 1uM” value turned out to be 9.46%.
Next, `COc1ccccc1N(C)S(=O)(=O)c1ccc(Cl)c(C(=O)NNC(=O)c2ccccc2O)c1`: 5.96%.
The value for `Nc1cc(Oc2ccc(F)cc2F)cc([N+](=O)[O-])c1` was 10.1%; that for `Cc1ccc(NC(=O)C2CSC3(C)CCC(=O)N23)cc1S(=O)(=O)N1CCCCCC1` (stereo not drawn) was 6.17%.
As for `Cc1nn(Cc2c(F)c(F)c(F)c(F)c2F)c(C)c1NC(=O)c1c([N+](=O)[O-])cnn1C`, the “hERG current change (%, negative = inhibition) at 1uM” value amounted to 9.21%.
On to `COc1ccccc1NC(=O)CCC(=O)c1ccc(-c2ccccc2)cc1`, for which the “hERG current change (%, negative = inhibition) at 1uM” value is 20.7%.
For `COc1cc(C)nc(N2CCCC(C(=O)NCC(C)C)C2)n1` (stereo not drawn), the “hERG current change (%, negative = inhibition) at 1uM” value is listed as 12.3%.
Next, `CC(CNC(=O)c1cncc(O)c1)NC(=O)c1cncc(O)c1.Cl` (stereo not drawn): 6.98%; `O=C(O)c1ccc(/C=C2\SC(=S)N(Nc3ccccc3)C2=O)cc1`: -0.693%.
`CNS(=O)(=O)c1ccc(NC(=O)c2cnn3c(C(F)F)cc(-c4ccccc4)nc23)cc1`: the “hERG current change (%, negative = inhibition) at 1uM” value is 3.27%.
Next, `O=C(Cc1ccccc1)NCC(=O)OCC(=O)c1ccc(F)cc1`: -2.39%; `CC(C)(C)c1ccc(C(=O)NNC(=O)C2CCCCC2)cc1`: 10.1%; `C#CCNC(=O)C1=C[C@@H](c2csc3ccccc23)[C@H](CCCO)[C@@H](OCC)O1`: -11.2%.
As for `COc1ccc(NC(=S)N(CCc2c(C)[nH]c3ccccc23)Cc2cccnc2)cc1`, the “hERG current change (%, negative = inhibition) at 1uM” value came out at 5.87%.
As for `CC(=O)OCc1nc2sc3c(c2c(=O)[nH]1)CCCC3`, the “hERG current change (%, negative = inhibition) at 1uM” value was found to be 11.1%.
Next, `COC(=O)[C@H]1[C@H]2C[C@@H]3c4[nH]c5cc(OC)ccc5c4CCN3C[C@H]2C[C@@H](OC(=O)/C=C/c2cc(OC)c(OC)c(OC)c2)[C@@H]1OC`: 7.37%.
On to `CCc1cc(/C(Cc2ccc3ccccc3n2)=N\O)c(O)cc1O`, for which the “hERG current change (%, negative = inhibition) at 1uM” value worked out at 9.16%.
Next, `C=CCN1C2CCCC1CC(NC(=O)Nc1cc(C)cc(C)c1)C2` (stereo not drawn): -26.1%; `COc1ccc(-c2nnc(SCC(=O)c3ccc4c(c3)OCCO4)o2)cc1`: -1.64%.
Next, `Cc1ccc(S(=O)(=O)N2[C@@H](c3ccc(Cl)cc3)C(C(=O)O)=CC[C@H]2c2ccc(C(C)C)cc2)cc1`: -11.1%; `COc1ccc(C2NC(=O)NC(C)=C2C(=O)Nc2cccc(C)c2C)cc1` (stereo not drawn): 3.18%; `COc1ccc(CCNc2cc(=O)[nH]c(N)n2)cc1`: -1.01%.
With `COc1cc2c(cc1OC)CN(C(=O)c1ccc(OC)c([N+](=O)[O-])c1)CC2`, the “hERG current change (%, negative = inhibition) at 1uM” value was 13%.
For `COc1ccc(CCNCC(=O)Nc2ccccc2C(F)(F)F)cc1.O=C(O)C(=O)O`, the “hERG current change (%, negative = inhibition) at 1uM” value was 10.7%.
For the molecule `Cc1cccc(NC(=O)Cn2c(=O)oc3ccccc32)c1C`, the “hERG current change (%, negative = inhibition) at 1uM” value turned out to be 12.8%.
Next, `O=C(Cc1ccc(Cl)cc1)NN1C(=O)c2ccccc2C1=O`: 8.79%.
Turning to `COc1ccc(C(CC(=O)N2CCCC(C)C2)c2c(OC)cc(OC)c3c(-c4ccccc4)cc(=O)oc23)cc1` (stereo not drawn), the “hERG current change (%, negative = inhibition) at 1uM” value is on record as 7.43%.
Consider `Cn1cc(CN(Cc2ccccn2)C[C@@H]2CCC(=O)N2)c(-c2ccccc2F)n1`, for which the “hERG current change (%, negative = inhibition) at 1uM” value was determined as 12.1%.
As for `CC(C)(C)N1C(=O)c2ccc(C(=O)Nc3ccc(C(=O)O)cc3)cc2C1=O`, the “hERG current change (%, negative = inhibition) at 1uM” value was determined as 10.2%.
Consider `Cc1cc(Br)c(OCc2ccc(C(=O)N/N=C3\CC(=O)CC(C)(C)C3)cc2)c(Br)c1`, for which the “hERG current change (%, negative = inhibition) at 1uM” value worked out at 15.5%.
For the molecule `O=C1CC(NS(=O)(=O)c2cccnc2)CN1c1ccc(F)cc1` (stereo not drawn), the “hERG current change (%, negative = inhibition) at 1uM” value is 2.92%.
The value for `Cc1nc2ccc(Cc3ccc4nc(C)[nH]c4c3)cc2[nH]1` was 10.1%; that for `CC1(c2ccc3ccccc3c2)NC(=O)NC1=O` (stereo not drawn) was 13.2%; that for `C=CCCCCCCCCC(=O)N1CCN(c2cc3c(cc2F)c(=O)c(C(=O)O)cn3CC)CC1` was 7.08%.
For the molecule `CC(=NCc1cccnc1)c1c(O)n(-c2ccccc2C)c(=O)[nH]c1=O`, the “hERG current change (%, negative = inhibition) at 1uM” value was -2.41%.
Turning to `CCN(CC)C(=O)Cn1cc(/C=C(\C#N)C(=O)N2CCN(c3ccccc3)CC2)c2ccccc21`, the “hERG current change (%, negative = inhibition) at 1uM” value was -1.66%.
Next, `CC(C)Cn1c(N)c(C(=O)COC(=O)c2ccncc2)c(=O)n(C)c1=O`: 7.31%; `COc1ccc(-c2cc3n(n2)CCc2nc4ccccc4n2-3)cc1`: 16.5%; `Cc1nc(SCC(=O)Nc2c(C)n(C)n(-c3ccccc3)c2=O)nc(C)c1C`: -0.752%.
Regarding `CC(c1ccon1)N(C)Cc1cn(C)nc1-c1ccc2c(c1)OCCO2` (stereo not drawn), the “hERG current change (%, negative = inhibition) at 1uM” value is listed as 10.4%.
As for `COc1ccc(C(=O)Nc2ccc3c(c2)nc(CN2CCN(C(C)=O)CC2)n3C)cc1`, the “hERG current change (%, negative = inhibition) at 1uM” value is reported as 10.4%.
Regarding `O=C(NCCCN1CCc2ccccc2C1)C1CCN(S(=O)(=O)N2CCC3(CC2)OCCO3)CC1`, the “hERG current change (%, negative = inhibition) at 1uM” value is -1.92%.
As for `Cc1nnc(SCC(=O)NN2C(=O)NC3(CCCCC3)C2=O)s1`, the “hERG current change (%, negative = inhibition) at 1uM” value was 11%.
As to `CCOC(=O)CNC(=S)n1ncnc1N`, the “hERG current change (%, negative = inhibition) at 1uM” value is 5.41%.
As for `Cc1ccc(C(=O)N/C(=C\c2ccco2)C(=O)N2CC(C)OC(C)C2)cc1C` (stereo not drawn), the “hERG current change (%, negative = inhibition) at 1uM” value worked out at 3.54%.
